Experimental findings from PubChem BioAssay AID1508642 (National Center for Advancing Translational Sciences (NCATS), 2021) are described below.

Among all 43,000 compounds or so, about 200 (0.47%) were called active. Inconclusive results (about 12%) are left out. Calls come from the whole dose curve; as a rule, active = well fitted cell-killing curve with a large enough effect; inconclusive = small, poorly fitted or top-dose-only effect, or effect the other way; inactive = flat fitted curve, though single readings scatter. Some of the results follow.
% is set by controls: 0 for no effect and ±100 for the full control effect.

The nature of this experiment: Cell viability qHTS assay in S16 Pmp22-F2sN cells. Note: nearly all actives have a fitted effect of over 65% in size. The settings on record: S16 Pmp22-F2sN Schwann cells viability, CellTiter-Glo, 24 h; series mostly up to 57.5 µM; activity change, negative = cytotoxicity: at the top concentration. The gist of the method:
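Viability was measured by CellTiter-Glo luminescence (15 min, room temperature). This followed 24 h at 37 °C of compound exposure (23 nL pin transfer) in S16 Pmp22-F2sN Schwann cells, 500-1,000 per well.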
For orientation: Quantitative high-throughput screening tests each substance at several concentrations.
Consider `O=C(COCc1cc(-c2ccc(F)cc2)on1)Nc1cc(F)ccc1F`, for which the “activity change, negative = cytotoxicity” value was inactive: 5.07%.
In the case of `O=C(CCn1cccn1)Nc1ccc(Br)cc1F`, the “activity change, negative = cytotoxicity” value was inactive: 6.29%.
To `CCOC(=O)CSc1nc2ccc(NC(=O)c3cccc(F)c3)cc2s1` belongs inactive: 3.52%; to `COc1ccc(CNC(=O)c2ccc3c(c2)N(Cc2c(F)cccc2Cl)C(=O)CS3)cc1`, inactive: 2.85%.
Regarding `CCc1cc2c(cc3c(=O)n(CCCC(=O)NCc4cccc(Cl)c4)ncn32)s1`, the “activity change, negative = cytotoxicity” value was inactive: -4.2%.
With `Cc1cc2c(n1-c1ccc(C(=O)NCc3ccccc3Cl)cc1)CCCC2`, the “activity change, negative = cytotoxicity” value is inactive: -1.11%.
To `O=C(CCSCc1ccccc1Cl)NCc1ccc(F)cc1Cl` belongs inactive: -8.95%.
For `COc1ccccc1N1CCN(C(=O)c2c(C)oc3ncn(C)c(=O)c23)CC1` the value was inactive: 2.78%.
For `CCOc1ccccc1NS(=O)(=O)c1ccc2c(c1)oc(=O)n2C` the value was inactive: -11.9%; for `CCN(CC)CCCNC(=O)Cc1csc2nc(-c3ccc(Cl)cc3)cn12`, inactive: -14.3%; for `Cc1ccc(CNC(=O)c2cc(-c3ccc(C)cc3)nc3n[nH]c(-c4cccc([N+](=O)[O-])c4)c23)cc1`, inactive: 0.0627%.
As for `CC1CCN(S(=O)(=O)c2ccc3c(c2)N(CC(=O)NCCCN2CCCCC2)C(=O)CS3)CC1`, the “activity change, negative = cytotoxicity” value was inactive: 12.5%.
For `CC(C)N(C(=O)Cn1cc(S(=O)(=O)Cc2ccc(Br)cc2)c2ccccc21)C(C)C` the value was inactive: 14.1%; for `CCOc1ccc(S(=O)(=O)NCCc2c(C)[nH]c3c(Cl)cccc23)cc1C`, inactive: 7.78%.
For `Cc1cccc(CC(=O)Nc2ccc3nc(N4CCC(C)CC4)cc(C)c3c2)c1`, the “activity change, negative = cytotoxicity” value was inactive: 18.7%.
To `COc1ccc(C(=O)Nc2ccc3nc(SCC(=O)N(C)c4ccccc4)sc3c2)cc1` belongs inactive: -16.9%; to `CC(C)(C)c1ccc2c(c1)N(CC(=O)NCCCN1CCN(c3ccccc3F)CC1)C(=O)CO2`, inactive: -15.5%.
For `Cc1cc(C)c(NC(=O)Cn2c(=O)n(CCC(=O)NCc3ccccc3Cl)c(=O)c3sccc32)c(C)c1` the value was inactive: 6.19%; for `COc1ccc(-c2cn3nc(N4CCC(C(=O)Nc5cc(Cl)ccc5C)CC4)sc3n2)cc1`, inactive: 2.74%; for `COc1ccc(NC(=O)CCCn2c(=O)c3cccn3c3cccnc32)cc1Cl`, inactive: -0.546%.
To `O=C(CN1C(=O)C2(SCC(=O)N2c2cccc(Cl)c2)c2ccccc21)NCc1ccccc1` (configuration not stated) belongs inactive: -13.1%.
Regarding `O=C(CCCCCn1c(=O)c2sccc2n(CC(=O)Nc2cc(C(F)(F)F)ccc2Cl)c1=O)NCc1ccccc1Cl`, the “activity change, negative = cytotoxicity” value was inactive: -11%.
Take `CCc1cccc(-n2c(=O)c3cccnc3n2CC(=O)NCc2ccc(C)cc2)c1`: the “activity change, negative = cytotoxicity” value was inactive: 5.45%.
For `Cc1ccc(NC(=O)Cn2cnc3onc(-c4ccc(F)cc4)c3c2=O)c(Cl)c1` the value was inactive: 0.987%.
For `COc1ccccc1-c1cc2nc(C)c(CCC(=O)NCCc3cccc(C)c3)c(C)n2n1` the value was inactive: 20.7%.
With `CC(=O)Nc1ccc(Nc2ncnc3c2cnn3C)cc1`, the “activity change, negative = cytotoxicity” value is inactive: 5.86%.
To `CCOC(=O)c1c(NC(=O)c2cc(OC)c(OC)c(OC)c2)sc2c1CCCC2` belongs inactive: -10.5%.
For `COc1ccccc1-c1noc(CCCC(=O)Nc2cccc(C(F)(F)F)c2)n1` the value was inactive: 2.8%.
To `CCOc1ccccc1CNC(=O)c1oc2c(c1C)-c1[nH]ncc1CC2` belongs inactive: 0.184%; to `CC1CCN(c2ncnc3c2c(-c2ccccc2)cn3-c2ccc(Br)cc2)CC1`, inactive: 12.9%; to `CCCN(CCC)C(=O)Cn1c(=O)n(CCCCCC(=O)NCc2ccc3c(c2)OCO3)c(=O)c2sccc21`, inactive: 8.22%.
For the compound `Cc1ccc2occ(-c3cc(-c4ccc(F)cc4)nc4c3COc3ccc(F)cc3-4)c(=O)c2c1`, the “activity change, negative = cytotoxicity” value is inactive: 28.4%.
For `COC(=O)c1ccc(NC(=O)CCc2c(C)nc3c(c(C)nn3C(C)(C)C)c2C)cc1` the value was inactive: -9.09%; for `CCN(C(=O)CSc1nc(-c2ccccc2)no1)c1ccccc1`, inactive: 8.76%; for `COc1ccc(OC)c(CNC(=O)c2nn(C)c3c2CS(=O)(=O)c2ccccc2-3)c1`, inactive: -2.72%.
For `CN(C)C(=O)c1ccc2c(c1)N(CC(=O)NCc1ccccc1Cl)C(=O)C1CCCCN21` (configuration not stated), the “activity change, negative = cytotoxicity” value was inactive: 4.01%.
For `Cc1ccccc1CSc1nc(-c2cccc(F)c2)nc2c1Cc1c(CO)cnc(C)c1O2` the value was inactive: 5.17%; for `Cc1ccc2nc(-c3ccc(C)o3)c(Nc3ccc4c(c3)OCCO4)n2c1`, inactive: -2.49%; for `COc1ccc(NC(=O)c2oc3ccccc3c2NC(=O)Cc2coc3ccc(C)cc23)cc1`, inactive: -3.93%.
To `COc1ccc(N2CCN(C(=O)CN3C(=O)COc4ccc(S(=O)(=O)N5CCC(C)CC5)cc43)CC2)cc1` belongs inactive: 12.4%; to `COc1ccc(N2CC(NC(=O)C3CCCCC3)CC2=O)cc1OC` (configuration not stated), inactive: 2.74%; to `O=C(c1cnc2c(c1)COc1ccc(Cl)cc1-2)c1ccccc1O`, inactive: 23.1%.
Turning to `Clc1ccccc1CSc1nnc(C2CCNCC2)o1`, the “activity change, negative = cytotoxicity” value is inactive: -0.435%.
To `Cc1nc(SCC(=O)Nc2nsc(-c3ccc(C(C)(C)C)cc3)n2)c2c3c(sc2n1)CCCC3` belongs inactive: -1.45%; to `COc1ccc(N2CCN(S(=O)(=O)CCNC(=O)Cc3ccc(OC)c(OC)c3)CC2)cc1`, inactive: -19%.
To `COc1ccc(OC)c(CNC(=O)c2ccc3c(c2)c(C)c(C)n3C)c1` belongs inactive: -16.9%; to `CCCCN(CC)C(=O)c1nn(-c2ccc(OC)cc2)c(=O)c2c1c1ccccc1n2C`, inactive: -0.0554%.
